# Only a part is listed here, and it is no random draw. The list includes weakly bound sequences.
# Biological target: T1, GST-Co-NF-kB (UniProt F1ARL5)
# T1 sequence: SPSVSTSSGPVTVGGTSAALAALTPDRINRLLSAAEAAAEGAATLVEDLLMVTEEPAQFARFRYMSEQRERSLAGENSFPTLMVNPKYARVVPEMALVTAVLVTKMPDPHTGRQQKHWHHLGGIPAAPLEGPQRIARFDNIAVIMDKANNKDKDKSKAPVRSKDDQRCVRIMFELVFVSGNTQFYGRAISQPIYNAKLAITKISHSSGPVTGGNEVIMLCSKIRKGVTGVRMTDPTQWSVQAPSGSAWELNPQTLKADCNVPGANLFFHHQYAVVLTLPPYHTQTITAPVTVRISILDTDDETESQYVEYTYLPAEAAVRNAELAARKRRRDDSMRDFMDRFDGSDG
# Experiment: protein-binding microarray (PBM)
# Conditions: PBM: ~300 nM protein, 6 mM HEPES pH 7.8, 80 mM KCl, 0.5 mM EDTA, 0.5 mM EGTA, 6% glycerol, 35 ng/ul poly-dIdC, 1% milk, 1 h, room temperature; Ap Aiptasia and Nv Nematostella (sea anemones) / Co Capsaspora / Aq Amphimedon (sponge) / Dm Drosophila / Hu human; RHD is the Rel homology domain; high values mean tight binding; most listed sequences are background and not binding sites; double strand, one strand shown
row,Sequence,binding signal [z-score]
1,CCGATTAACATCACCCACTCCCCTGATGTTAATCGGGTCTTGATTCGCTTGACGCTGCTG,2.82
2,CCGATTAACATCAGGGGATCTTATGATGTTAATCGGGTCTTGATTCGCTTGACGCTGCTG,3.1
3,CCGATTAACATCAGGGGGGAACATGATGTTAATCGGGTCTTGATTCGCTTGACGCTGCTG,9.73
4,CCGATTAACATCAAGAAGTTCCCTGATGTTAATCGGGTCTTGATTCGCTTGACGCTGCTG,2.42
5,CCGATTAACATCACCGATTTCCCTGATGTTAATCGGGTCTTGATTCGCTTGACGCTGCTG,3.27
6,CCGATTAACATCAAAAAACCACCTGATGTTAATCGGGTCTTGATTCGCTTGACGCTGCTG,1.37
7,CCGATTAACATCAGGGGGAAAAATGATGTTAATCGGGTCTTGATTCGCTTGACGCTGCTG,11.6
8,CCGATTAACATCAAGGTAATCCCTGATGTTAATCGGGTCTTGATTCGCTTGACGCTGCTG,1.06
9,CCGATTAACATCAAGGGGGGGCATGATGTTAATCGGGTCTTGATTCGCTTGACGCTGCTG,4.6
10,CCGATTAACATCAGGATTTCCCATGATGTTAATCGGGTCTTGATTCGCTTGACGCTGCTG,3.18
11,CCGATTAACATCAGGGGGAAAACTGATGTTAATCGGGTCTTGATTCGCTTGACGCTGCTG,11.7
12,CCGATTAACATCAGAAGACCCCCTGATGTTAATCGGGTCTTGATTCGCTTGACGCTGCTG,1.79
13,CCGATTAACATCATGCGGGAAAATGATGTTAATCGGGTCTTGATTCGCTTGACGCTGCTG,4.47
14,CCGATTAACATCAGGGAAAAGTATGATGTTAATCGGGTCTTGATTCGCTTGACGCTGCTG,4.73
15,CCGATTAACATCACACAACCCCCTGATGTTAATCGGGTCTTGATTCGCTTGACGCTGCTG,2.31
16,CCGATTAACATCAAAATGCCCCCTGATGTTAATCGGGTCTTGATTCGCTTGACGCTGCTG,4.18
17,CCGATTAACATCAGGGGGGGGTATGATGTTAATCGGGTCTTGATTCGCTTGACGCTGCTG,5.96
18,CCGATTAACATCAGGACAATCCCTGATGTTAATCGGGTCTTGATTCGCTTGACGCTGCTG,0.265
19,CCGATTAACATCAAGGGGGGAGATGATGTTAATCGGGTCTTGATTCGCTTGACGCTGCTG,6.56
20,CCGATTAACATCAGGGGCTTCACTGATGTTAATCGGGTCTTGATTCGCTTGACGCTGCTG,0.637

row,Sequence,binding signal [z-score]
1,CCGATTAACATCAGGGGATACCCTGATGTTAATCGGGTCTTGATTCGCTTGACGCTGCTG,3.74
2,CCGATTAACATCAGGAGACCCCCTGATGTTAATCGGGTCTTGATTCGCTTGACGCTGCTG,1.61
3,CCGATTAACATCAATCCCCCCCATGATGTTAATCGGGTCTTGATTCGCTTGACGCTGCTG,6.68
4,CCGATTAACATCACATCCCCCCCTGATGTTAATCGGGTCTTGATTCGCTTGACGCTGCTG,6.54
5,CCGATTAACATCAGGGATCACCCTGATGTTAATCGGGTCTTGATTCGCTTGACGCTGCTG,1.02
6,CCGATTAACATCAACCTCCCCCCTGATGTTAATCGGGTCTTGATTCGCTTGACGCTGCTG,6.38
7,CCGATTAACATCAGGGACGCCCCTGATGTTAATCGGGTCTTGATTCGCTTGACGCTGCTG,1.13
8,CCGATTAACATCAGGAACTCCCCTGATGTTAATCGGGTCTTGATTCGCTTGACGCTGCTG,3.87
9,CCGATTAACATCACATTTCCCCATGATGTTAATCGGGTCTTGATTCGCTTGACGCTGCTG,7.21
10,CCGATTAACATCAAGTCTCCCCCTGATGTTAATCGGGTCTTGATTCGCTTGACGCTGCTG,8.63
11,CCGATTAACATCAGGGTATTTTATGATGTTAATCGGGTCTTGATTCGCTTGACGCTGCTG,3.22
12,CCGATTAACATCAGGGAGTTCCATGATGTTAATCGGGTCTTGATTCGCTTGACGCTGCTG,0.63
13,CCGATTAACATCAGGGGGGAGAATGATGTTAATCGGGTCTTGATTCGCTTGACGCTGCTG,7.95
14,CCGATTAACATCAAAGTCCCCCGTGATGTTAATCGGGTCTTGATTCGCTTGACGCTGCTG,6.7
15,CCGATTAACATCAGGGATATCCATGATGTTAATCGGGTCTTGATTCGCTTGACGCTGCTG,0.713
16,CCGATTAACATCAGGGAAATTCATGATGTTAATCGGGTCTTGATTCGCTTGACGCTGCTG,4.15
17,CCGATTAACATCAAAAAACACCCTGATGTTAATCGGGTCTTGATTCGCTTGACGCTGCTG,2.93
18,CCGATTAACATCAGATAAACCCCTGATGTTAATCGGGTCTTGATTCGCTTGACGCTGCTG,0.987
19,CCGATTAACATCAGGACCTTCCCTGATGTTAATCGGGTCTTGATTCGCTTGACGCTGCTG,0.163
20,CCGATTAACATCAGGAGAACCCCTGATGTTAATCGGGTCTTGATTCGCTTGACGCTGCTG,1.26

# Source: publication PMC5700166
